PubChem BioAssay AID1347120 (National Center for Advancing Translational Sciences (NCATS), 2019)
Out of some 390,000 compounds screened, about 930 (0.24%) were called active. The inconclusive results got no clear call from the source; some entries with a clear call stand among them for comparison. The call rests on the fitted dose curve; in most records, active means well fitted activation curve with a large enough effect; inconclusive means small, poorly fitted or top-dose-only effect; inactive means no such curve, though single readings can be large or run the other way. Where the call is inconclusive, the potency comes from a doubtful curve fit.

assay: qHTS for Suppressors of FUS Proteinopathy: Primary screen using FUS-linked yeast assay; further: nearly all actives have a fitted effect of over 55% in size;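 on growth rescue (activation): plate controls were DMSO vehicle for no effect and reference control for full effect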; details: S. cerevisiae FUS-expressing, OD600, 24 h; Potency: growth rescue; growth rescue (activation): at 76.6 µM (top of the series)
In short: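 FUS-expressing yeast, raffinose-pregrown, induced in 2% galactose minimal medium at OD 0.005; compounds in a dilution series, 24hr at 30C. Growth restoration read as absorbance at 600 nm. CP55940 positive control, DMSO negative.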
Potency means the concentration at half of the fitted maximal effect; tags describe the fitted curve by direction and shape.

| SMILES | Potency | growth rescue (activation) |
| --- | --- | --- |
| CC(C#N)Sc1ncnc2sc3c(c12)CCC3 (stereo not given) | inactive | – |
| CCCC#Cc1ccc2c(c1)O[C@H](CN(C)C(=O)CC1CC1)[C@H](C)CN([C@@H](C)CO)S2(=O)=O | inconclusive: 28.2 µM [activator, single point] | – |
| Cc1nc(N2CCCCC2)c(C#N)c(C)c1[N+](=O)[O-] | inconclusive: 28.2 µM [activator, single point] | – |
| COC(=O)[C@]12C[C@H](CC(=O)NCc3cccc4ccccc34)C(=O)N(Cc3cccc4ccccc34)C1=C[C@H](C1CCCC1)O[C@@H]2C | inconclusive: 3.98 µM [activator, partial curve] | – |
| CCCCOc1ccc(C(=O)N/C(=C/C=C/c2ccccc2)C(=O)NCCO)cc1 | inconclusive: 31.6 µM [activator, single point] | – |
| CC(C)Oc1ccc(CNC(=O)C2=Cc3ccccc3OC2)cc1 | inconclusive: 44.7 µM [activator, single point] | – |
| Cc1ccc(C(=O)N2CC=C(c3ccccc3)CC2)s1 | inconclusive: 50.1 µM [activator, single point] | – |
| CCc1ccc(C2CC(=O)Nc3c2c(=O)n(C)c2ncnn32)cc1 (stereo not given) | inactive | – |
| NC(=O)CCCn1c(C(=O)c2ccc(Cl)cc2)c2ccc(C(F)(F)F)cc2[n+]1[O-] | inconclusive: 31.6 µM [activator, single point] | – |
| CC(NC(=O)C12CC3CC(CC(C3)C1)C2)C(=O)N/N=C/C1=C(N2CCOCC2)C(=C\c2ccccc2)/CC1 (stereo not given) | inconclusive: 31.6 µM [activator, partial curve, poor fit] | – |
| CCOC(=O)c1c(-c2ccc(OC)cc2)csc1/N=C/C1=C(O)CCCC1=O | inconclusive: 17.8 µM [activator, partial curve] | – |
| CCC(=O)OC1(C(=O)CCl)[C@@H](C)C[C@H]2[C@@H]3CCC4=CC(=O)C=C[C@]4(C)[C@@]3(F)[C@@H](O)C[C@@]21C (stereo not given in full) | inconclusive: 22.4 µM [activator, single point] | – |
| CCCCN(C(=O)c1ccccc1Br)C(c1ccc(OC)cc1)c1nc2ccccc2[nH]1 (stereo not given) | inconclusive: 20 µM [activator, partial curve, poor fit] | – |
| CCCCn1c(SCC(=O)N2CCC(C)CC2)nc2cc(S(N)(=O)=O)ccc21 | – | inconclusive: 70.3% [activator] |
| Cc1c(C(=O)c2ccc(Cl)cc2Cl)cnc2cc3c(cc12)OCO3 | inactive | – |
| Cc1ccc(NC(=O)c2nc[nH]c2C(=O)NCCCCNC(=O)c2[nH]cnc2C(=O)Nc2ccc(C)cc2)cc1 | inactive | – |
| Cc1c(C(=O)NNC(=O)c2csc(N3CCOCC3)n2)oc2ccc(Br)cc12 | inconclusive: 44.7 µM [activator, single point] | – |
| CCN(c1ccc(OC)cc1)S(=O)(=O)c1ccc2[nH]c3c(c2c1)CCCCC3 | inactive | – |
| CCC(Oc1ccccc1)C(=O)Nc1nnc(S(=O)(=O)N2CCCCC2)s1 (stereo not given) | inconclusive: 50.1 µM [activator, single point] | – |
| CCC(C)(C)n1nnnc1C(c1cc2cc(OC)c(OC)cc2[nH]c1=O)N1CCc2ccccc21 (stereo not given) | inconclusive: 0.794 µM [activator, full curve, poor fit] | – |
| Cc1ccc(OCC(=O)N/N=C\c2c(C)[nH]n(-c3ccccc3)c2=O)c([N+](=O)[O-])c1 | inconclusive: 50.1 µM [activator, single point] | – |
| COc1ccc2ccccc2c1C=Nn1c(-c2n[nH]c3c2CCC3)n[nH]c1=S | inactive | – |

| SMILES | Potency | growth rescue (activation) |
| --- | --- | --- |
| ON=C(CCc1ccccc1)c1ccccc1 | inactive | – |
| CN(C)c1ccc(NC(=O)Nc2ccc3c(c2)c(=O)n(C)n3Cc2ccccc2)cc1 | inconclusive: 35.5 µM [activator, single point] | – |
| COc1ccccc1C(=O)N/N=C(\C)c1ccc(NC(=O)C2CC2)cc1 | inconclusive: 0.794 µM [activator, partial curve, poor fit] | – |
| CCCc1nc2ccccc2c(=O)n1CC(=O)c1ccc(OC)cc1 | inactive | – |
| Cc1cc(C)c(OCC(=O)N(Cc2ccc(N(C)C)cc2)Cc2ccco2)c(C)c1 | inactive | – |
| Cc1ccc(C)n1-c1ccc(C(=O)N2CCOCC2)cc1 | active: 35.5 µM | – |
| COc1cccc(C(=O)c2c(-c3ccccc3)ncc3cc(OC)c(OC)cc23)c1 | inconclusive: 39.8 µM [activator, single point] | – |
| CC(C)CC(C(=O)OCC(=O)Nc1ncc(Cl)cc1Cl)N1C(=O)c2ccccc2C1=O (stereo not given) | inconclusive: 31.6 µM [activator, single point] | – |
| Cn1c(=O)c2cc(NC(=S)NC3CCCCC3)ccc2n1-c1ccccc1 | inactive | – |
| CC1(C)CC[C@]2(C(=O)O)CC[C@]3(C)C(=CC[C@@H]4[C@@]5(C)CC[C@H](O[C@@H]6O[C@H](C(=O)O)[C@@H](O)[C@H](O[C@@H]7OC[C@H](O)[C@H](O)[C@H]7O)[C@H]6O)C(C)(C)[C@@H]5CC[C@]43C)[C@@H]2C1 | inactive | – |
| COc1ccc(-c2cc(C(F)(F)F)nc(N3CCCCC3)n2)cc1OC | inactive | – |
| C=CCC[C@@H](Cc1ccc(F)cc1)C(=O)OC[C@@H](C)NC(=O)[C@H](CC=C)CC(=O)N(CCO)Cc1ccccc1 | inconclusive: 31.6 µM [activator, single point] | – |
| CCOc1ccc(CCNC(=O)Cn2c(-c3cccs3)cc3ccccc32)cc1 | inactive | – |
| Cc1c(Cl)cccc1NC(=O)CCS(=O)(=O)c1ccc2c(c1)CC(C)N2C(=O)C1CC1 (stereo not given) | inactive | – |
| Cc1cccc(N2CCN(C(=O)C3CCN(C(=O)c4cc5sccc5n4C)CC3)CC2C)c1 (stereo not given) | active: 31.6 µM | – |
| COc1ccc(S[C@]2(C(=O)N3CCCC3)CC(=O)N(c3ccccc3OC)[C@@H]2c2ccc(OC)cc2)cc1 | inconclusive: 35.5 µM [activator, single point] | – |
| COc1cc(S(=O)(=O)NCCc2c(C)[nH]c3ccc(C)cc23)ccc1Br | inconclusive: 50.1 µM [activator, single point] | – |
| Cc1c(C(=O)N(Cc2ccc(Cl)cc2)C2CCS(=O)(=O)C2)oc2ccccc12 (stereo not given) | inconclusive: 44.7 µM [activator, single point] | – |
| CCOC(=O)c1nc2sc(C)c(C)c2c(=O)[nH]1 | inactive | – |
| CC(C)(C)OC(=O)NCCCC[C@H](NC(=O)c1nc[nH]c1C(=O)NCC(=O)OCc1ccccc1)C(=O)OC(C)(C)C | inconclusive: 20 µM [activator, partial curve, poor fit] | – |
| CCN(CC)CC(O)Cn1c(-c2ccccc2Cl)nc2ccccc21 (stereo not given) | inactive | – |
| CC(C)CN(C(=O)/C=C/c1nc2ccccc2s1)C1CCS(=O)(=O)C1 (stereo not given) | inconclusive: 12.6 µM [activator, partial curve, poor fit] | – |

| SMILES | Potency | growth rescue (activation) |
| --- | --- | --- |
| Cc1ccc(S(=O)(=O)N2CCC(C(=O)OCC(=O)NCCc3ccccc3)CC2)cc1C | inconclusive: 17.8 µM [activator, partial curve, poor fit] | – |
| COc1ccc(COc2ccc3c(C)cc(=O)oc3c2)cc1 | inactive | – |
| COc1ccc(CCN2C(=O)c3[nH]nc(-c4ccccc4O)c3C2c2cccc(O)c2)cc1OC (stereo not given) | inconclusive: 14.1 µM [activator, partial curve, poor fit] | – |
| O=C(N[C@@H]1CCCc2c1cnn2-c1ccc(F)cc1F)c1ccccn1 | inactive | – |
| O=C(N/N=C/c1cc(Br)cc(Cl)c1O)c1ccc2c(c1)OCO2 | inactive | – |
| CC(=O)c1ccc(NC(=O)c2ccc([N+](=O)[O-])o2)cc1 | inactive | – |
| COc1ccc(OC)c(S(=O)(=O)Nc2ccc(O)c3ccccc23)c1 | inconclusive: 50.1 µM [activator, single point] | – |
| COc1cccc(-n2c(SCc3cccc(C)c3)nc3c([nH]c4ccccc43)c2=O)c1 | inactive | – |
| CC(=O)C(Sc1nc(N2CCOCC2)nc(N2CCOCC2)n1)C(=O)Nc1ccccc1 (stereo not given) | inconclusive: 20 µM [activator, partial curve, poor fit] | – |
| CC(C)CCNC(=O)c1cnc2sc(N3CCCCCC3)nn2c1=O | inactive | – |
| Cc1nc(-c2ccccc2)sc1C(=O)/C=C/c1ccc(Cl)cc1 | inactive | – |
| CCOC(=O)c1snc(C(=O)NC2CCCCC2)c1N | inactive | – |
| CCOC(=O)N1CCC(N2Cc3cccc(C(=O)Nc4ccccc4OC)c3C2=O)CC1 | inconclusive: 15.8 µM [activator, partial curve, poor fit] | – |
| COc1ccc(Nc2ncc(C(=O)Nc3cccc(Cl)c3)c3ccccc23)cc1 | inconclusive: 50.1 µM [activator, single point] | – |
| CCOC(=O)C1CCCN(C(=O)c2ccc3c(c2)N(C)C(=O)/C(=C/c2ccccc2Cl)S3)C1 (stereo not given) | inconclusive: 14.1 µM [activator, partial curve, poor fit] | – |
| Cc1ccc2c(c1)C(c1ccccc1)N(C(=O)c1ccc(Br)cc1)CC(=O)N2 (stereo not given) | inconclusive: 25.1 µM [activator, single point] | – |
| COc1ccc(NC(=O)CN(C)C(=O)c2ccc3[nH]c4c(c3c2)CC(C)CC4)cc1 (stereo not given) | inconclusive: 50.1 µM [activator, single point] | – |
| Cc1c(Cl)cccc1NC(=O)C(=O)NCCc1csc2nc(-c3ccccc3F)nn12 | inactive | – |
| COc1cccc(C(=O)Nc2cccc(-c3nnc(-c4ccco4)o3)c2)c1 | inactive | – |
| COc1cc(C(=O)OCC(=O)c2c[nH]c3ccccc23)ccc1OCC(=O)N1CCOCC1 | inconclusive: 39.8 µM [activator, partial curve, poor fit] | – |
| C#CCNC(=O)C[C@H]1C[C@@]2(C(=O)OC)C(=C[C@H](COCc3ccccc3)O[C@@H]2C)N(CCc2ccc(OC)c(OC)c2)C1=O | inconclusive: 14.1 µM [activator, partial curve, poor fit] | – |
